Laboratory results as given in publication PMC6919601, “Identification of Plasmodium dipeptidyl aminopeptidase allosteric inhibitors by high throughput screening” (PLoS ONE, 2019).
In all, about 110,000 compounds went through this assay and about 230 (0.21%) showed an effect of 50% or more. The list shows a part of the results.

What follows are compounds tested against DPAP1 (Plasmodium falciparum, UniProt Q8IIJ9) (assay: primary screen, percent inhibition; read by cleavage of a fluorogenic dipeptide substrate; higher = more effect of the substance).
Set-up: species or system P. falciparum D10 trophozoite lysates; single well
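Also: 30 min substrate incubation versus DMSO and 10 µM JCP410 controls.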

DPAP1, sequence (Q8IIJ9 whole entry, looked up): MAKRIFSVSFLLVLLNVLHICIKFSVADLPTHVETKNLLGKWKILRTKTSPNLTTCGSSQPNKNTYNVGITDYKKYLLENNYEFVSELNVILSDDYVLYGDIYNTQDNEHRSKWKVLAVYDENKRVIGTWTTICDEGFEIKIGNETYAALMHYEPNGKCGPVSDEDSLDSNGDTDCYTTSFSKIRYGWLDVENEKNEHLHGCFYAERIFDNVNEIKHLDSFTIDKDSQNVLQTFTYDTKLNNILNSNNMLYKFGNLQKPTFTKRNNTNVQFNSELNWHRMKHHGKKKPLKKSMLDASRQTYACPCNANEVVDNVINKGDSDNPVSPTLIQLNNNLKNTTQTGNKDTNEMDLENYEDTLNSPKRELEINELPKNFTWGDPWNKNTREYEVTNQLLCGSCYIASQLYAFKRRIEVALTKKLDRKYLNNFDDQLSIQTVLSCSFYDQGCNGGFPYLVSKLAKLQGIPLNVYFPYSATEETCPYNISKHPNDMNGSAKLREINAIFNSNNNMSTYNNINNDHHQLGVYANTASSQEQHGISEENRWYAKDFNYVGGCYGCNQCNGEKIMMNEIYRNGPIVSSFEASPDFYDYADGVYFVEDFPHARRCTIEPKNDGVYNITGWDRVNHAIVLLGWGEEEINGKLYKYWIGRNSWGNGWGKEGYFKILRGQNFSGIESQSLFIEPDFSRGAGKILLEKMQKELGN

Compared with CCOC(=O)N1CCC2(CC1)OC(=O)C(C)=C2C(=O)NC(C)CC (stereo not drawn), CCOC(=O)N1CCN(S(=O)(=O)c2cccs2)CC1 is lower in “% Inhibition @ 10 uM” value: -2.13% for the first, -3.93% for the second.

Going from Cc1ccccc1OCCn1c(C(C)O)nc2ccccc21 (stereo not drawn) to Cc1ccc(OCCn2ncc3ccccc3c2=O)c(C)c1, the “% Inhibition @ 10 uM” value rises from -0.551% to 3.25%.

Going from O=S(=O)(c1ccc(F)cc1)N1CCN(Cc2ccccc2)CC1 to CN(Cc1ccccc1)C(=O)C1CCCN(c2ncnc3onc(-c4ccc(F)cc4)c23)C1 (stereo not drawn), the “% Inhibition @ 10 uM” value rises from -10.2% to 2.09%.

Going from c1ccc(C(CN2CCOCC2)c2ccccc2)cc1 to N#CCNC(=O)[C@@H](Cc1ccccc1)NC(=O)OCc1ccccc1, the “% Inhibition @ 10 uM” value falls from -1.78% to -6.56%.

Going from CCS(=O)(=O)N1CCC(C(=O)N2CCCCC2)CC1 to CC(C)NS(=O)(=O)c1cn(CC(=O)NC2CCCCCCC2)cc1S(=O)(=O)NC(C)C, the “% Inhibition @ 10 uM” value rises from -2.99% to -1.52%.

Compared with COc1ccc(-c2cc3cc(Br)ccc3oc2=O)cc1, COc1ccc(-c2cs/c(=N\CCO)n2-c2ccccc2)cc1 is lower in “% Inhibition @ 10 uM” value: -0.693% for the first, -1.32% for the second.

Going from CC(C)CCNc1ncnc2onc(-c3ccc(Cl)cc3)c12 to Nc1nonc1-c1noc(-c2ccc(COc3cc(Cl)ccc3Cl)cc2)n1, the “% Inhibition @ 10 uM” value falls from 8.62% to 5.09%.

First: CCNC(=O)/C(=C\c1ccc2c(c1)OCO2)NC(=O)c1ccccc1Br
Second: O=C(NC(Cc1ccccc1)c1ccc2c(c1)OCCCO2)c1cccnc1 (stereo not drawn)
The “% Inhibition @ 10 uM” value of the first is lower: -4.49% for the first, 2.17% for the second.

First: O=C(Nc1cccc2cccnc12)c1ccccc1F
Second: O=C(COc1ccc(Br)cc1)Nc1ccc2ccccc2c1
The “% Inhibition @ 10 uM” value of the first is lower: 1.28% for the first, 2.93% for the second.

Compared with COc1ccc(NCC2CCCCC2)c(OC)c1, COc1cc(OC)c(CN2CCSCC2)cc1Br is higher in “% Inhibition @ 10 uM” value: -1.42% for the first, 3.9% for the second.

First: CC(C)(C)C1CCc2c(sc(NC(=O)C3CCCCC3C(=O)O)c2C(N)=O)C1 (stereo not drawn)
Second: CC(C)(C)C1CCc2c(sc(NC(=O)c3ccc(F)cc3)c2C(=O)N2CCOCC2)C1 (stereo not drawn)
The “% Inhibition @ 10 uM” value of the first is higher: 3.72% for the first, 1.79% for the second.

First: CN1CCC2(CC1)NC(=O)NC2=O
Second: COc1cc(Br)cc(/C=C2/SC(=O)NC2=O)c1O
The “% Inhibition @ 10 uM” value of the first is lower: -1.99% for the first, 1.29% for the second.

Going from Cc1ccc2nc3c(O)n(CCCN4CCCC4=O)cnc-3c2c1 to COc1ccc(Cn2ccc3nc(C)c(C(=O)N4CCN(c5ccccn5)CC4)cc3c2=O)cc1, the “% Inhibition @ 10 uM” value falls from 3.24% to -3.22%.

First: CC(=O)Nc1ccc(N2C(=O)CC(Sc3nccc(C)n3)C2=O)cc1 (stereo not drawn)
Second: Cc1cc(C)nc(NS(=O)(=O)c2ccc(NC(=O)c3c(C)nn(-c4ccccc4)c3C)cc2)n1
The “% Inhibition @ 10 uM” value of the first is lower: -4.49% for the first, 2.03% for the second.

First: O=C(CCc1nnc2ccc(N3CCOCC3)nn12)NCCN1CCCC1
Second: CCc1nn(CC(=O)NCCCSC2CCCCC2)c(=O)c2cc3sccc3n12
The “% Inhibition @ 10 uM” value of the first is lower: -0.544% for the first, 6.46% for the second.

Compared with Cc1cccc(NC2=NS(=O)(=O)c3ccccc32)c1, O=C(CN1C(=O)c2ccccc2S1(=O)=O)Nc1ccccc1C(F)(F)F is higher in “% Inhibition @ 10 uM” value: -2.5% for the first, 5.07% for the second.

First: COc1ccc(C2=CC(c3c(F)cccc3Cl)n3ncnc3N2)cc1 (stereo not drawn)
Second: CCOc1ccc(C(=O)CCc2nc3ccccc3s2)cc1
The “% Inhibition @ 10 uM” value of the first is higher: -3.37% for the first, -7.46% for the second.

First: CCOc1ccc(C(=O)N2CCn3c2nc2ccccc23)cc1
Second: CCOc1ccc(-n2c(C)nc3cc(C(=O)NCc4ccco4)ccc32)cc1
The “% Inhibition @ 10 uM” value of the first is lower: -3.23% for the first, -0.458% for the second.

Compared with Cc1ccc(C(C)C)c(Oc2ccc(NC(=O)CCCC(=O)O)cc2)c1, COc1ccc(NC(=O)c2ccc[n+](C)c2)cc1OCC(C)C is lower in “% Inhibition @ 10 uM” value: 2.32% for the first, -1.37% for the second.

First: Cc1[nH]nc(-c2ccc(OCC(=O)O)cc2O)c1Oc1ccc(Cl)cc1Cl
Second: Clc1cc(Cl)c(OCc2nc3ccccc3[nH]2)cc1Cl
The “% Inhibition @ 10 uM” value of the first is lower: -3.92% for the first, -3.27% for the second.

Going from N#C/C(=C/c1cc(Br)cs1)C(N)=S to CCn1cc(/C=C(/C#N)C(=O)Nc2ccc(Cl)cc2)c2ccccc21, the “% Inhibition @ 10 uM” value falls from 1.7% to 0.392%.

Going from CCOC(=O)c1c(N)sc2c1CCC(C(C)(C)C)C2 (stereo not drawn) to CCOc1ccc(C2C3=C(O)CCCC3=Nc3c2c(=O)n(C)c(=O)n3C)cc1 (stereo not drawn), the “% Inhibition @ 10 uM” value falls from 1.27% to -1.47%.

First: CCc1[nH]nc2c1C(c1ccc(Cl)s1)C(C#N)=C(N)O2 (stereo not drawn)
Second: CCSc1nc2ccc(C)cc2cc1C#N
The “% Inhibition @ 10 uM” value of the first is lower: -6.51% for the first, 0.851% for the second.

Compared with CC(CCc1ccccc1)NCc1cccnc1 (stereo not drawn), Cc1cc(C(=O)N(C)Cc2ccccc2)c2c(C)nn(-c3ccccc3)c2n1 is lower in “% Inhibition @ 10 uM” value: 1.88% for the first, 0.627% for the second.

First: COCCn1c(C)cc(C(=O)C(=O)Nc2nnc(CCOc3ccccc3)s2)c1C
Second: COc1ccc(-c2nnc(NC(=O)c3ccc(C(C)(C)C)cc3)s2)cc1OC
The “% Inhibition @ 10 uM” value of the first is lower: -1.06% for the first, 7.49% for the second.

First: COc1ccc(CCNC(=O)C2C3C=CC4(CN(Cc5cccs5)C(=O)C24)O3)cc1OC (stereo not drawn)
Second: C=CCNC(=O)c1cc(-c2ccc(OC)c(OC)c2)on1
The “% Inhibition @ 10 uM” value of the first is lower: -3.79% for the first, -2.47% for the second.

Compared with OCCN1CCN(Cc2c(F)cccc2Cl)CC1, OC1CCCN(Cc2c(Cl)cccc2Cl)C1 (stereo not drawn) is higher in “% Inhibition @ 10 uM” value: -2.02% for the first, 1.88% for the second.

First: C=CCNC(=O)c1cc2c(=O)n3ccccc3nc2n(CCC)c1=N
Second: CCNCCNC(=O)c1c(O)nc2ccccc2c1O
The “% Inhibition @ 10 uM” value of the first is lower: -1.47% for the first, 1.86% for the second.

First: NC(=O)CSc1nnc(-c2cccnc2)n1-c1cccc(C(F)(F)F)c1
Second: O=C(NCCCN1CCc2ccccc2C1)c1cnn(-c2ccccc2)c1-n1cccc1
The “% Inhibition @ 10 uM” value of the first is lower: -8.91% for the first, 1.8% for the second.

Compared with COc1ccccc1-c1c(C)oc2c(CN3CCCC(C)C3)c(O)ccc2c1=O (stereo not drawn), CC1=CC(C)(C)N(CN2C(=O)c3ccccc3C2=O)c2cc(C)ccc21 is lower in “% Inhibition @ 10 uM” value: -2.91% for the first, -4.21% for the second.

Compared with Cc1ccc(S(=O)(=O)N(CC(=O)N2CCC(C)CC2)c2ccc(C)c(C)c2)cc1, Cc1cc(NS(=O)(=O)c2ccc(NC(=O)c3ccc(C(C)(C)C)cc3)cc2)no1 is higher in “% Inhibition @ 10 uM” value: -1.41% for the first, 1.83% for the second.

First: O=C(COc1ccc2ccccc2c1)NC12CC3CC(CC(C3)C1)C2
Second: C=CCOc1ccc(C(=O)N(Cc2ccc(C)cc2)Cc2ccco2)cc1
The “% Inhibition @ 10 uM” value of the first is lower: -0.28% for the first, 6.01% for the second.

Going from COCCNC(=O)C1CCCN(c2ncnc3onc(C)c23)C1 (stereo not drawn) to CCOc1ccc2c(C)c(C(=O)O)oc2c1OCC, the “% Inhibition @ 10 uM” value falls from 2.86% to -4.61%.
